From article PMC4336329 (PLoS ONE, 2015)
The whole screen tested about 310,000 compounds, of which about 14,000 (4.5%) showed an effect of 50% or more. Effects have a minus sign here. The list shows a part of the results.

target: human ether-à-go-go-related gene (hERG) potassium channel (human, UniProt Q12809); test: primary screen, population patch clamp on CHO cells stably expressing hERG
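Note: peak tail current of the secondary pulse compared with the same well before compound.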

human ether-à-go-go-related gene (hERG) potassium channel, sequence (Q12809 whole entry, looked up): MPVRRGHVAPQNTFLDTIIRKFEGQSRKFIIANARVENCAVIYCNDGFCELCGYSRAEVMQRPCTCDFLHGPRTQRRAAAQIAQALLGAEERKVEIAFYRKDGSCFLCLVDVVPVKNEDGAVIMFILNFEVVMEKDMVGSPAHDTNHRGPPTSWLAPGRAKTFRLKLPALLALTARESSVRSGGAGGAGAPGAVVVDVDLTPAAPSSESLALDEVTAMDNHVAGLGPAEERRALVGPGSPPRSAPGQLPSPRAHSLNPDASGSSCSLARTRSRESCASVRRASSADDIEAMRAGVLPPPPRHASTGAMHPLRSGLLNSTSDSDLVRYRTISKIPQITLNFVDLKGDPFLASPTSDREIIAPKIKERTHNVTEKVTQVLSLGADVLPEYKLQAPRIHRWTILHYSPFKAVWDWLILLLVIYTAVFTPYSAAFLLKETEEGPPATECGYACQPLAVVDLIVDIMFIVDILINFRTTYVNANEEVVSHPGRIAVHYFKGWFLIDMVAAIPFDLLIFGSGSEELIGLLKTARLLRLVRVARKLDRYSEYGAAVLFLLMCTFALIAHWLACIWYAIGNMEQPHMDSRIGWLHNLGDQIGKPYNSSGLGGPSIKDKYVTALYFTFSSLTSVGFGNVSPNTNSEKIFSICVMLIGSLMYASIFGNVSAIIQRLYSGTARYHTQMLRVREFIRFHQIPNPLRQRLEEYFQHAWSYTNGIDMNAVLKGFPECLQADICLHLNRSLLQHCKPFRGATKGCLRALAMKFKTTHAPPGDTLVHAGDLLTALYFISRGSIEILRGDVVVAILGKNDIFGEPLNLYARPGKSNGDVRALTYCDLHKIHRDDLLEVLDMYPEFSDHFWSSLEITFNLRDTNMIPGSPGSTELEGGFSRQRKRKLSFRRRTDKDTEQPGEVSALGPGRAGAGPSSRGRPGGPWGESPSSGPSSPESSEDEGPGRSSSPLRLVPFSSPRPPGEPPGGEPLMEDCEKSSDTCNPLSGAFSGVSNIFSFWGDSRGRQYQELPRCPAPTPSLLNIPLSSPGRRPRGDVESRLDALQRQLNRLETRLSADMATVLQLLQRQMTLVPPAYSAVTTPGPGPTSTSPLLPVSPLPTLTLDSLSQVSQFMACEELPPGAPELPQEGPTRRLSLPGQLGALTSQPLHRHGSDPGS

Compound	hERG current change (%, negative = inhibition) at 10uM [%]
OCCC1CN(Cc2ccc(Oc3ncccn3)cc2)CCN1C1CCCC1 (centres unmarked)	8.16
CCC1CCCCN1CCCNC(=O)CS(=O)Cc1nc(-c2ccc(OC)c(OC)c2)oc1C (centres unmarked)	5.21
CN(C)S(=O)(=O)c1cccc(COC(=O)CCNC(=O)c2ccc([N+](=O)[O-])cc2)c1	-55.2
COc1ccc(-c2nnc(NC(=O)Cc3ccccc3)o2)cc1	18.2
CC1=NN(C(=O)Cc2ccc(C)cc2)C(O)(c2cccnc2)C1 (centres unmarked)	10.1
Cc1ccc(/C=C(\C#N)C(=O)NCCN2CCOCC2)cc1	11.5
O=c1cc2c(nn1Cc1ccc(Cl)cc1Cl)-c1ccccc1CC2	5.14
Cc1ccc(-n2c(=O)[nH]cc(C(=O)N3CCc4ccccc43)c2=O)cc1	3.92
CCOc1ccc(NC(=O)c2ccccc2-c2ccccc2C(=O)O)cc1	19
Cc1ccn(CCC(=O)N2c3ccccc3CC2C)n1 (centres unmarked)	22.4
O=C1CC(c2cccc([N+](=O)[O-])c2)c2ccc3ccccc3c2N1 (centres unmarked)	-30.4
COc1ccc2c(c1OC)C(=O)N(c1ccc(O)cc1)C2	13.5
NC(=O)CC(NC(=O)c1ccc(Br)cc1)c1ccc(NCCc2ccc(F)cc2)c([N+](=O)[O-])c1 (centres unmarked)	9.66
O=C(Nc1ccc(N2CCOCC2)nc1)c1ccc(Cl)cc1	-11.5
CCN1CCN(c2oc(-c3ccc(OC)cc3)nc2C#N)CC1	-45.6
Cc1cc(Cl)c2ccc(Cl)cc2n1	1.65
COc1cc(NC(=O)c2cc(S(=O)(=O)N3CCc4ccccc43)cn2C)cc(OC)c1OC	17.5
COc1ccc(CNC(=O)c2cc(-c3ccccc3O)n[nH]2)cc1	5.51
COc1ccc(-n2c(SCC(=O)OC(C)C)nnc2-c2ccccn2)cc1	-14.4
COc1ccc(C(=O)N/C(=C/c2cccnc2)C(=O)N2CCCCCC2)cc1OC	10.5
COc1cc(NC(=O)CSc2nnnn2Cc2ccccc2)cc(OC)c1	8.56
O=[N+]([O-])C1=CC=C2C(=NC3(CCCCC3)N2O)C1=NC1CCCCC1	29.2

Compound	hERG current change (%, negative = inhibition) at 10uM [%]
CCCS(=O)(=O)N1CCN(C(=O)c2cc(OC)cc(OC)c2)CC1	1.94
CC(=O)N1c2ccc(N=Cc3cc(Br)cc(Br)c3O)cc2CC1C (centres unmarked)	2.6
CCSc1nc(-c2ccccc2)c(-c2ccccc2)n1CC(O)CO (centres unmarked)	-2.23
CC(C)OP(=O)(c1ccc(N(C)C)cc1)C(O)c1ccc(N(C)C)cc1 (centres unmarked)	-3.47
O=C(c1ccco1)N1CCN=C1SCc1cccc(F)c1	-6.98
CC(=O)NNC(=O)c1sc(=S)n(C)c1C	5.27
Cn1c(/C(C#N)=C/c2ccc(-c3ccc(S(N)(=O)=O)cc3)o2)nc2ccccc21	-38.1
Cc1nc(-c2cccc(NC(=O)C3CCCCC3)c2)cs1	-6.57
COc1ccc(C(OC(=O)c2cccs2)C(=O)NCC2CCCO2)cc1 (centres unmarked)	-14.3
COc1cc(C(=O)NNC(=O)c2ccccc2OCc2c(C)noc2C)cc(OC)c1OC	5.74
O=C(NCc1ccccn1)c1ccc(CNS(=O)(=O)c2ccc(F)cc2)cc1	9.75
CCN(CC(=O)Nc1cccc(C#N)c1)CC(=O)Nc1cccc(OC)c1	-9.48
C=CCC1(C)C(=O)N(c2ccccc2)c2ccccc21 (centres unmarked)	16.1
O=C(Cc1ccc(Cl)cc1Cl)Nc1cccc(S(=O)(=O)Nc2ccccc2F)c1	-1.71
COC(=O)c1ccc(Cn2nc(C)c(Br)c2C)cc1	26.7
COc1ccc(OC)c(/C=C/C(=O)Nc2cccc(S(=O)(=O)NC3=NCCCCC3)c2)c1	1.28
Cc1ccc(NC(=O)Cc2ccccc2F)cc1S(=O)(=O)N1CCCCCC1	-6.21
CCOC(=O)/C=c1\s/c(=C\c2sccc2C)c(=O)n1CC(=O)NCc1ccc(C)cc1	20.6
Cc1ccc(N2CC(C(=O)Nc3ccc(N(C)C)cc3)CC2=O)cc1C (centres unmarked)	1.21
CCC(C)(C)NC(=O)C(c1ccc(C)cc1)N(CC1CCCO1)C(=O)CCC(=O)Nc1ccccn1 (centres unmarked)	6.53
O=S(=O)(NC1CCCCC1Sc1ncccn1)c1ccc(Cl)cc1 (centres unmarked)	-50.9
CCCOc1ccc(S(=O)(=O)n2cc(Br)c(=O)[nH]c2=O)cc1	-21
